# Source: the BET-seq Pho4 binding data (Le et al. 2018)
# The other results are listed elsewhere or left out. Values were computed here from the reads of four pooled replicates and scatter widely.
# Biological target: T1, Pho4 (S. cerevisiae) (UniProt P07270)
# T1 sequence: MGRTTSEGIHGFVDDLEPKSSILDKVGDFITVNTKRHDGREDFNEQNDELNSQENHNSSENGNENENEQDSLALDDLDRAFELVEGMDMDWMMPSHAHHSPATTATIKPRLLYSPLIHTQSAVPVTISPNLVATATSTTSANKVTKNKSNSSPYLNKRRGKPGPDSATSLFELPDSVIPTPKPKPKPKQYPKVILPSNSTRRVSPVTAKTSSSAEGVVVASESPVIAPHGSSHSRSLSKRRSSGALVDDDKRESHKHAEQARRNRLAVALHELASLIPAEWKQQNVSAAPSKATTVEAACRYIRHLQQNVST
# Assay: relative binding free energy (BET-seq); higher = weaker binding
# Conditions: reference: library average
row,Sequence,relative binding free energy [kcal/mol]
1,AGAGGCACGTGGGGAG,-0.24
2,CAGGTCACGTGATGGT,0.28
3,TTAATCACGTGACTTT,0.19
4,TGTGCCACGTGGTACA,-0.04
5,TGGGTCACGTGGTCCT,-0.01
6,GCCTGCACGTGGGTTA,-0.18
7,AGAAGCACGTGATGTG,-0.13
8,AAATACACGTGGTATG,0.06
9,TACGTCACGTGTATTG,-0.06
10,TTGTTCACGTGCAGTT,0.3
11,GTGGGCACGTGCGCGA,-0.14
12,TGGGTCACGTGTGGTT,0.24
13,ACTGGCACGTGATGAT,0.02
14,TTTAGCACGTGATTAG,0.02
15,TAGAGCACGTGTATGC,-0.06
16,CATTTCACGTGTTATG,0.18
17,GGATCCACGTGGTGGC,0.14
18,TATGACACGTGAGGGC,0.19
19,TGGGTCACGTGCTAGA,0.17
20,CCAGTCACGTGGGTTT,0.03
21,TAGTTCACGTGGGTCC,0.28
22,GAACGCACGTGGGGAG,-0.14
23,GTCGTCACGTGCAGTG,0.06
24,TCATTCACGTGCGTTT,0.21
25,GTGGGCACGTGCTAGC,-0.09

row,Sequence,relative binding free energy [kcal/mol]
1,GGCGTCACGTGAGTAT,0.17
2,AATGACACGTGATTTG,0.07
3,AGGATCACGTGTCATT,0.21
4,ATCGTCACGTGCAGGG,0.03
5,GTTAGCACGTGCGGGT,-0.05
6,GTTGACACGTGGTGTC,-0.09
7,TATAGCACGTGTTTAA,-0.13
8,CAGGGCACGTGGAATG,0
9,TTGGTCACGTGGGCCA,-0.03
10,AGCATCACGTGGCGGT,0.07
11,AATGTCACGTGAAAGT,0.24
12,GAGTACACGTGTTAGG,0.01
13,GATGGCACGTGGAAAG,0.13
14,AGCGTCACGTGGAGAG,0.04
15,TCGGCCACGTGTATGG,-0.06
16,TTTCACACGTGTAGGG,0.17
17,GTTGACACGTGGCTTT,-0.02
18,TTGTCCACGTGGAGAT,0.21
19,GGTCACACGTGTGTGG,0.16
20,TGGTTCACGTGGAGAC,0.18
21,GCGGGCACGTGGGGAG,-0.12
22,CGAAGCACGTGAGGTG,0.01
23,CGTTACACGTGCGGTT,0.05
24,CAGGTCACGTGTGGTT,0.16
25,TTGGGCACGTGGCAAT,-0.03

row,Sequence,relative binding free energy [kcal/mol]
1,GGTAGCACGTGTGTCG,0.02
2,CTAGTCACGTGGTGCT,0
3,TGGGACACGTGATATA,0.04
4,TTGTTCACGTGGTCAG,0.17
5,TTATGCACGTGTGGTA,-0.03
6,GTAGGCACGTGTAATA,-0.01
7,GACGTCACGTGAGTGT,0.4
8,AGGGGCACGTGACAAT,0.01
9,TTCTGCACGTGGTGCG,-0.17
10,TTGAGCACGTGTGCGG,-0.06
11,AAGTACACGTGGTTAA,-0.01
12,CGGGTCACGTGGGGCT,0.01
13,ATGAGCACGTGTGTTG,-0.1
14,CGTTACACGTGTGGAA,0.11
15,GTTTGCACGTGGTCGA,-0.11
16,CAGGGCACGTGGTCTG,-0.12
17,GTACTCACGTGTTGTT,0.22
18,AGTATCACGTGGGGGA,0.04
19,TGTCGCACGTGAATGA,0.2
20,TGAAGCACGTGATCGT,0.14
21,GTGGACACGTGCGGGA,0
22,CATGGCACGTGGTAGT,-0.14
23,TTGAGCACGTGCATTG,-0.06
24,GTTTACACGTGAACGT,0.24
25,CATTGCACGTGATAGT,0.01

row,Sequence,relative binding free energy [kcal/mol]
1,GTGCACACGTGGAGGT,-0.03
2,GTTGCCACGTGGGCGT,-0.18
3,GACGGCACGTGTTCGG,-0.02
4,TAACGCACGTGTATGG,-0.01
5,TTGGGCACGTGGACGT,-0.13
6,TTTAGCACGTGGTTGC,-0.11
7,GGCCGCACGTGGAAGG,0.07
8,TTCGACACGTGTAGGA,0.11
9,GGCAGCACGTGTGGAG,0.02
10,ATGATCACGTGTTGGT,0.16
11,GTGTTCACGTGGCAAT,0.33
12,ATTTGCACGTGATTCG,0
13,CAGTTCACGTGGTTGT,0.24
14,TTTATCACGTGAGGAG,0.3
15,TGTAACACGTGAGGAG,0.34
16,GGGATCACGTGGTCGG,0.09
17,ATGAGCACGTGGGCGT,-0.27
18,GTCGTCACGTGGGGGC,0
19,TCAATCACGTGTTGGG,0.03
20,TCGTTCACGTGTGACG,0.37
21,CCGTACACGTGTGGGT,0.03
22,CGGAACACGTGGGTAG,-0.11
23,AAAGACACGTGGGAGT,-0.19
24,TGTTCCACGTGAGGGT,0.29
25,ATGGCCACGTGCTGGT,-0.14

row,Sequence,relative binding free energy [kcal/mol]
1,TGTAACACGTGTCGTA,0.07
2,TCTATCACGTGGCTGG,0.13
3,AGCAGCACGTGGCGGG,-0.29
4,GAAATCACGTGGGGAG,0.1
5,TATGTCACGTGCTCGT,-0.06
6,AGTATCACGTGGGTAT,0.05
7,ACAAGCACGTGGTGGG,-0.23
8,TGCCTCACGTGGGGTT,0.01
9,TGGTACACGTGTTGTC,0.11
10,TTCAGCACGTGGTTGG,-0.07
11,TTGGGCACGTGCTGTG,-0.1
12,GTTAACACGTGTCTTG,0.09
13,CTGTACACGTGAGTTA,0.24
14,GGGTGCACGTGGAGGT,0.04
15,TCACGCACGTGGTGGG,-0.22
16,AGGGTCACGTGTCTGG,0.11
17,TTATTCACGTGGCGGT,0.15
18,AAGTTCACGTGTATGG,0.18
19,TAGGACACGTGTTTAG,0.14
20,AGTATCACGTGGTTAC,0.11
21,GTTCGCACGTGAGCGT,0.21
22,GTTATCACGTGAGTGA,0.31
23,AATATCACGTGGGTGA,-0.06
24,GGGGACACGTGGGGGA,0.03
25,GGTTGCACGTGTGTCA,0.01

row,Sequence,relative binding free energy [kcal/mol]
1,TTGTTCACGTGTGAAA,0.22
2,TGCGCCACGTGTAGTT,-0.01
3,ATGTTCACGTGTGAAA,0.28
4,CAGGTCACGTGGGGGC,0.03
5,CGGGGCACGTGCGGTC,-0.12
6,GGGTTCACGTGATGGA,0.48
7,TGCGTCACGTGAGGGA,0.29
8,GCTCTCACGTGGTGGG,0.28
9,GGTTTCACGTGTGAGG,0.3
10,GGTGTCACGTGGAATT,0.2
11,TCGTACACGTGATTGG,0.09
12,ATTGTCACGTGTATCG,0.09
13,AATGTCACGTGGCCGG,-0.06
14,TCAGTCACGTGCTGGG,0.08
15,TTCTCCACGTGTGGGT,0.09
16,AGCGGCACGTGAGGGT,0.17
17,GTGTGCACGTGCCGTT,0.01
18,TTTTGCACGTGATTAC,0.15
19,GGGTGCACGTGTTGAT,0.04
20,TTAATCACGTGTGTAG,0.17
21,ATTGGCACGTGGGAAG,-0.11
